# The data scatter; read single values as rough.
# Test: amyloid nucleation score relative to library mode (yeast Sup35 reporter selection) (log enrichment difference); higher = more amyloid nucleation; sequences are the first 22 residues of the Bri2 peptide extended by up to 12 random residues
# Conditions: random library (experiment): 1;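 active = nucleation score significantly above 0 at FDR 0.05; inactive = not significantly above 0 or absent from output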
# 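Note: [psi-pin-] Saccharomyces cerevisiae expressing SupN fusions, induced by 100 µM Cu2SO4, selected 7 d at 30 °C without adenine and uracil, scored by deep sequencing of output versus input.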
row,Sequence,amyloid nucleation score
1,EASNCFAIRHFENKFAVETLICYRVYLRYDNLCL,inactive
2,EASNCFAIRHFENKFAVETLICYRWGRYLSVRSV,inactive
3,EASNCFAIRHFENKFAVETLICYRWSLVISMDHG,inactive
4,EASNCFAIRHFENKFAVETLICYRWVGYLKCPVG,-0.331
5,EASNCFAIRHFENKFAVETLICYRWVQCRTMWLR,inactive
6,EASNCFAIRHFENKFAVETLICYS,inactive
7,EASNCFAIRHFENKFAVETLICYSASSMGGDICV,inactive
8,EASNCFAIRHFENKFAVETLICYSDINLVIVVIS,inactive
9,EASNCFAIRHFENKFAVETLICYSDYLRMDGVGL,inactive
10,EASNCFAIRHFENKFAVETLICYSFCLAMFARPR,inactive
11,EASNCFAIRHFENKFAVETLICYSFNYAYRLVGC,2.53
12,EASNCFAIRHFENKFAVETLICYSFTWVTWTWSR,inactive
13,EASNCFAIRHFENKFAVETLICYSGFVQDTVSVV,inactive
14,EASNCFAIRHFENKFAVETLICYSGP,2.05
15,EASNCFAIRHFENKFAVETLICYSGWTVYVASRS,inactive
16,EASNCFAIRHFENKFAVETLICYSIV,6.58
17,EASNCFAIRHFENKFAVETLICYSLDLCRSLMRG,inactive
18,EASNCFAIRHFENKFAVETLICYSLDNILMFMLP,2.52
19,EASNCFAIRHFENKFAVETLICYSLTRWQSTKVP,inactive
20,EASNCFAIRHFENKFAVETLICYSMQGVGQSVCR,2.43
21,EASNCFAIRHFENKFAVETLICYSQWSYNVVRHL,inactive
22,EASNCFAIRHFENKFAVETLICYSRYRRLVLGRV,inactive
23,EASNCFAIRHFENKFAVETLICYSSKNYCSVHLQ,-0.773
24,EASNCFAIRHFENKFAVETLICYSSRTLNRNDTR,4.09
25,EASNCFAIRHFENKFAVETLICYSTFTHRGDSML,2.92
26,EASNCFAIRHFENKFAVETLICYSTTPQSRRCEV,3.01
27,EASNCFAIRHFENKFAVETLICYSVFWLGMCRFR,inactive
28,EASNCFAIRHFENKFAVETLICYSVGRYTSLPIT,inactive
29,EASNCFAIRHFENKFAVETLICYSWYHRSVNSTG,inactive
30,EASNCFAIRHFENKFAVETLICYSYFRYVAISCV,inactive

# Same assay, conditions: random library (experiment): 2
row,Sequence,amyloid nucleation score
1,EASNCFAIRHFENKFAVETLICYRVPDDGQDSPV,inactive
2,EASNCFAIRHFENKFAVETLICYRVYELGVVLCR,inactive
3,EASNCFAIRHFENKFAVETLICYRY,4.03
4,EASNCFAIRHFENKFAVETLICYRYKILTLELFR,inactive
5,EASNCFAIRHFENKFAVETLICYRYNTIYWEGWS,inactive
6,EASNCFAIRHFENKFAVETLICYSD,inactive
7,EASNCFAIRHFENKFAVETLICYSDYN,6.2
8,EASNCFAIRHFENKFAVETLICYSFCHRLYYLGV,inactive
9,EASNCFAIRHFENKFAVETLICYSFLYRASCI,3.49
10,EASNCFAIRHFENKFAVETLICYSFTPVPRVSWD,4.4
11,EASNCFAIRHFENKFAVETLICYSFVMKWGNIVR,inactive
12,EASNCFAIRHFENKFAVETLICYSGGV,inactive
13,EASNCFAIRHFENKFAVETLICYSGWTGYRLLWR,inactive
14,EASNCFAIRHFENKFAVETLICYSGWTTSLYSKW,-0.419
15,EASNCFAIRHFENKFAVETLICYSILWLVDLADR,3.83
16,EASNCFAIRHFENKFAVETLICYSIVSNMPEFIV,1.11
17,EASNCFAIRHFENKFAVETLICYSKERLN,inactive
18,EASNCFAIRHFENKFAVETLICYSKQFQVFRSVR,inactive

row,Sequence,amyloid nucleation score
1,EASNCFAIRHFENKFAVETLICYSKYTLCDRHHP,3.37
2,EASNCFAIRHFENKFAVETLICYSL,4.55
3,EASNCFAIRHFENKFAVETLICYSLCAKCYIWRN,inactive
4,EASNCFAIRHFENKFAVETLICYSLIMYPWNPLS,1.46
5,EASNCFAIRHFENKFAVETLICYSLKDRQCTVGL,inactive
6,EASNCFAIRHFENKFAVETLICYSLSYKFLLFVN,inactive
7,EASNCFAIRHFENKFAVETLICYSLYILEVNERS,2.94
8,EASNCFAIRHFENKFAVETLICYSQDCLLRFKCS,inactive
9,EASNCFAIRHFENKFAVETLICYSRYFKAKSLSK,inactive
10,EASNCFAIRHFENKFAVETLICYSSYMSVNLPLL,1.43
11,EASNCFAIRHFENKFAVETLICYSSYTLM,1.17
12,EASNCFAIRHFENKFAVETLICYSTSQF,4.39
13,EASNCFAIRHFENKFAVETLICYSVCFTVSYYRT,inactive
14,EASNCFAIRHFENKFAVETLICYSVTVRHQCVIV,inactive
15,EASNCFAIRHFENKFAVETLICYSVVALVYGHMS,inactive
16,EASNCFAIRHFENKFAVETLICYSYFQLYLSVPA,inactive
17,EASNCFAIRHFENKFAVETLICYSYLMNTCNCTF,5.88

# Same assay, conditions: random library (experiment): 3
row,Sequence,amyloid nucleation score
1,EASNCFAIRHFENKFAVETLICYSCCHYLLVT,inactive
2,EASNCFAIRHFENKFAVETLICYSEALLGPDHGR,inactive
3,EASNCFAIRHFENKFAVETLICYSFCQWTNAIGR,5.23
4,EASNCFAIRHFENKFAVETLICYSFPHIMYNLV,2.26
5,EASNCFAIRHFENKFAVETLICYSGGLLPLGRTG,2.52
6,EASNCFAIRHFENKFAVETLICYSGRELS,1.39
7,EASNCFAIRHFENKFAVETLICYSGVTMSGMERN,3.82
8,EASNCFAIRHFENKFAVETLICYSHRSQQFCNNV,3.87
9,EASNCFAIRHFENKFAVETLICYSIVKVSKYT,inactive
10,EASNCFAIRHFENKFAVETLICYSLFILAFRLSW,inactive
11,EASNCFAIRHFENKFAVETLICYSNAFLFTYC,inactive
12,EASNCFAIRHFENKFAVETLICYSPFYICSCVIC,7.37
13,EASNCFAIRHFENKFAVETLICYSPLMSCCFLLY,6.28
14,EASNCFAIRHFENKFAVETLICYSRCSRQGTASE,2.09
15,EASNCFAIRHFENKFAVETLICYSRINHRLERVT,inactive
16,EASNCFAIRHFENKFAVETLICYSS,inactive
17,EASNCFAIRHFENKFAVETLICYSVCVSYRMLCW,inactive
18,EASNCFAIRHFENKFAVETLICYSVILMQRDVIS,inactive
19,EASNCFAIRHFENKFAVETLICYSWASGFALLEL,inactive
20,EASNCFAIRHFENKFAVETLICYSWASVIGYVYT,inactive
21,EASNCFAIRHFENKFAVETLICYSWGEHTRRL,4.28

# From the supplement of paper PMC12067230
